# Measured values: patent US8729059B2, “Paramyxovirus family inhibitors and methods of use thereof” (priority 2007, dated 2014)
# Molecular target: MV H and F envelope glycoproteins (Measles virus, UniProt P69353)
# Conditions: 16677 up to 150 μM
compound,measurement,value
"Cn1nc(C(F)(F)F)cc1C(=O)Nc1ccc(S(=O)(=O)N2CCCC2)cc1 [compound 16677, 1-methyl-3-(trifluoromethyl)-N-[4-(pyrrolidinylsulfonyl)-phenyl]-1H-pyrazole-5-carboxamide]",inhibition of cell-to-cell fusion mediated by transiently expressed MV H and F proteins,entirely uninhibited
